Assay results taken from paper PMC12040169 (PLOS Biology, 2025).
The list shows a part of the results.

system: T1, C. trachomatis L2/434/Bu expressing GFP (CTL2-GFP); set-up: species or system HeLa; C. trachomatis total inclusion area by high-content imaging, normalised to DMSO; settings: total inclusion area; 28.5 h, 10 µM; inhibitor
T1 construct: L2/434/Bu GFP intracellular growth in HeLa cells
Description: In this process, we also complemented the assay described above with an imaging-based readout (Fig 1B). After measurements of bulk GFP and resorufin fluorescence, cells were fixed, stained with the DNA dye Hoechst, and imaged at a high-content imaging platform to detect chlamydial inclusions (GFP) and host cell nuclei (Hoechst). The total area and number of inclusions in individual wells and the number of nuclei then served as additional proxies for chlamydial growth and host cell viability. […] MICs were calculated as described above.

| Structure (SMILES) | % of control remaining |
| --- | --- |
| CS(=O)(=O)CCC(C(=O)O)N1C(=O)c2ccc(Oc3ccc(Cl)cc3)cc2C1=O (stereo not drawn) [CBK266377] | 125.483 |
| CCCc1n[nH]c(-c2cc(C(F)(F)F)ccc2F)c1C(=O)OCC [CBK107231] | 78.2627 |
| COc1ccc(-n2cc(-c3ccccn3)nn2)cc1OC [CBK113133] | 113.42 |
| CCn1c(SCC(=O)Nc2ccc([N+](=O)[O-])cc2O)nnc1-c1ccccc1 [CBK268730] | 94.8997 |
| Cc1ccccc1NC(=O)/C(=C\c1cccnc1)NC(=O)c1ccccc1 [CBK261632] | 98.9872 |
| Cc1cc(N2CCC(O)CC2)nc(N)n1 [CBK167265] | 98.6501 |
| CCN(Cc1ccccc1)C1CCN(Cc2cccc(OC)c2)CC1 [CBK264654G] | 77.3498 |
| COc1ccc(/C=C/C(=O)NCc2ccc(S(N)(=O)=O)cc2)cc1OC [CBK265483] | 105.286 |
| COc1ccc(-c2nn(-c3ccccc3)cc2C(=O)Nc2ccc(C(=O)O)cc2)cc1 [CBK296121] | 82.1797 |
| CC(=O)Nc1ccc2nc(NC(=O)c3ccc(C#N)cc3)sc2c1 [CBK287309] | 105.822 |
| Cc1ccc(Cc2cnc(NC(=O)NC3CCOCC3)s2)cc1Cl [CBK304440] | 32.2057 |
| COc1ccc(C(=O)N[C@H]2C[C@H]3C(=O)Nc4ccc(-c5ccsc5)cc4C(=O)N3C2)cc1 [CBK289362] | 95.7469 |
| CC1(C)CC(=O)c2sc(NC(=O)C3COc4ccccc4O3)nc2C1 (stereo not drawn) [CBK144104] | 90.5313 |
| O=C(CCn1c(C(F)(F)F)cc2cccnc21)NC1CCCC1 [CBK284864] | 81.7033 |
| CS(=O)(=O)c1ccc(CN2CCOC[C@H]2c2nc(-c3ccc(F)cc3)c[nH]2)cc1 [CBK289295] | 97.9681 |
| CC1(C)C[C@H](NC(=O)c2ccccc2)[C@@]2(CCC(=O)NC3CC3)CC[C@](C)(O)C[C@@H]12 [CBK289045] | 116.794 |
| CCOC(=O)C(NC(=O)c1cn[nH]c1)c1cccc(C)c1C (stereo not drawn) [CBK304175] | 22.1591 |
| N#CCCCN1CCCC2(C1)NCCc1c2[nH]c2cc(F)ccc12 (stereo not drawn) [CBK039826] | 94.1349 |
| CN(C)CCCC(=O)N1CCN(C(=O)c2ccco2)CC1 [CBK144445] | 97.1897 |
| C[C@H](Nc1nc(-c2ccoc2)cnc1N)c1ccccc1 [CBK063707] | 135.532 |
| COCCNC(=O)c1nnn(-c2ccc(Br)cc2)c1C [CBK300524] | 100.303 |
| Cc1cc(O)nc2sc(C(=O)c3ccccc3)c(N)c12 [CBK115334] | 96.9645 |
| CC(C)(C)C(=O)NC(=S)Nc1ccc(Cc2ccncc2)cc1 [CBK269717] | 86.7173 |
| COCC(=O)N1CCc2sccc2C1c1ccc(NC(=O)c2ccc(F)cc2)cc1 (stereo not drawn) [CBK286435] | 96.7914 |
| COCCCOc1cncc(N2CCCC2)n1 [CBK115759] | 99.5573 |
| OC(Cn1nnc2ccccc21)Cn1c(-c2ccccc2)c(-c2ccccc2)c2ccc3ccccc3c21 (stereo not drawn) [CBK264054G] | 66.7172 |

| Structure (SMILES) | % of control remaining |
| --- | --- |
| O=C(CSc1nc2sc3c(c2c(=O)[nH]1)CCCC3)NCCN1CCOCC1 [CBK264064] | 100.365 |
| O=C(Nc1ccc(Cl)cc1C(=O)NCCN1CCOCC1)c1ccc(Cl)cc1Cl [CBK265749] | 139.396 |
| Cc1nnc(Sc2nc3ccccc3nc2NC(C)C)s1 [CBK093731] | 98.7822 |
| CC(=O)Nc1ccc(S(=O)(=O)NNC(=O)c2cccc(Cl)c2)cc1 [CBK261694] | 96.6075 |
| CCOc1ccc(-c2noc(CCC(=O)NC)n2)cc1OC [CBK269226] | 61.1212 |
| FC(F)(F)c1ccc(N2CCNCC2)nc1SCc1ccccc1Cl [CBK003964A] | 37.9398 |
| O=C(O)/C=C/C(=O)NNC(=O)c1ccccc1Br [CBK261786] | 98.0071 |
| COc1ncc(-c2cnc(N)c(-c3ccc(C=O)cc3)n2)c(OC)n1 [CBK064110] | 135.616 |
| O=C(CC(CN1CCCCC1)C(=O)O)Nc1cccc(O)c1 (stereo not drawn) [CBK286788] | 105.141 |
| CCN(CC)C(=O)NC(C)c1cccc(S(=O)(=O)NC)c1 (stereo not drawn) [CBK305134] | 37.2154 |
| N=C(N)NCC(=O)N(CCCc1cc(C(F)(F)F)cc(C(F)(F)F)c1)c1ccc2c(c1)OCO2 [CBK000702T] | 19.0437 |
| CC(=O)c1c(C)oc(C)c1C(C)=O [CBK012535] | 100.16 |
| O=C(Nc1cc(Cl)nc(Cl)c1)N(Cc1ccc2ccccc2c1)CC1CCNCC1 [CBK049773] | 26.6365 |
| COc1ccccc1CN(Cc1cccnc1)C(=O)CCn1cnnn1 [CBK307106] | 78.2039 |
| O=C(CN1CCCCCC1)N/N=C/c1ccccc1Cl [CBK261589] | 91.4658 |
| C[C@@H](c1ccccc1)n1c(=O)[nH]c2ncc(-c3ccc(N(C)C)cc3)nc21 [CBK064352] | 101.319 |
| CCN1CCC2(C/C=C/CCOc3ccccc3C(=O)NCCCNC2=O)CC1 [CBK292060] | 89.3843 |
| CCOC(=O)c1nc(C2CCN(c3cccc(F)c3C#N)CC2)n[nH]1 [CBK304711] | 101.571 |
| Cc1nn(-c2ccc3nnc(C)n3n2)c2c1C(c1ccccc1F)CC(=O)N2 (stereo not drawn) [CBK287898] | 89.5798 |
| CN(C)CC(=O)N1CCN(c2ccc(C(=O)c3ccccc3)cc2[N+](=O)[O-])CC1 [CBK296699] | 94.4545 |
| Cc1ccc(C(=O)CN2CCCC3(C2)NCCc2c3[nH]c3c(C)cccc23)cc1 (stereo not drawn) [CBK039546] | 87.2176 |
| Cc1cc(C)c(NC(=O)N(CCCO)Cc2ccncc2)c(Cl)c1 [CBK304406] | 46.2387 |
| CC(=O)c1ccc(-c2cn3ccnc3c(N3CCN(C)CC3)n2)s1 [CBK037957] | 115.677 |
| Cc1ccnn1CCC(=O)NC1(c2ccc(F)cc2)CCCC1 [CBK283600] | 95.5014 |
| Cc1ccc(Nc2nc(Cn3nc(C(=O)O)c4ccccc4c3=O)cs2)cc1 [CBK296989] | 108.627 |
